Results reported in patent publication US20210228731A1, “ANTIBODY DRUG CONJUGATES FOR ABLATING HEMATOPOIETIC STEM CELLS” (NOVARTIS AG, priority 2018, published 2021).
“Also recorded” adds a separate entry of the source.

Columns and labels:
[1] = test system: human peripheral blood HSC-derived mast cells; assay: In vitro human mast cell degranulation assay (beta-hexosaminidase release); type: cell-based; conditions: test agents 0.006-25 nM cross-linked with antibody specific for the Fab portion; absence of SCF
Procedure: Mature mast cells were generated using CD34+ progenitors from mobilized peripheral blood. CD34+ cells were cultured in StemSpan SFEM (StemCell Technologies) supplemented with recombinant human stem cell factor (rhSCF, 50 ng/ml, Gibco), recombinant human interleukin 6 (rhIL-6, 50 ng/ml, Gibco), recombinant human IL-3 (30 ng/ml, Peprotech), GlutaMAX ([…], Gibco), penicillin (100 U/ml, Hyclone) and streptomycin (100 μg/ml, Hyclone). Recombinant hll-3 was added only during the first week of the culture. After the third week, half of the medium was replaced weekly with fresh medium containing rhIL-6 (50 ng/ml) and rhSCF (50 ng/ml). Mature mast cell purity was evaluated by surface staining of high-affinity IgE receptor (FCεRI, eBioscience) and CD117 (BD). Cells were used between week 8 and 12 of the culture.
The derived mast cells were washed once to remove SCF, and the required amount of cells was incubated overnight in mast cell medium containing rhIL-6 (50 ng/ml) with or without rhSCF (50 ng/ml). As positive control for mast cell degranulation, a portion of the cells were sensitized with human myeloma IgE (100 ng/ml, EMD Millipore). The following day, anti-cKIT antibody or antibody fragments or toxin conjugates thereof, mouse monoclonal anti-human IgG1 (Fab specific, Sigma), goat anti-human IgE (Abcam) and compound 48/80 (Sigma) dilutions were prepared in HEPES degranulation buffer (10 mM HEPES, 137 mM NaCl, 2.7 mM KCl, 0.4 mM sodium phosphate dibasic, 5.6 mM glucose, pH adjusted at 7.4 and mixed with 1.8 mM calcium chloride and 1.3 mM magnesium sulfate) supplemented with 0.04% bovine serum albumin (BSA, Sigma). Test agents and anti-IgG1 were mixed together in a V-bottom 384-well assay plate while anti-IgE and compound 48/80 were tested alone. The assay plate was incubated 30 min at 37° C. During the incubation, cells were washed 3 times with HEPES degranulation buffer+0.04% BSA to remove medium and unbound IgE. Cells were resuspended in HEPES degranulation buffer+0.04% BSA and seeded at 3000 cells per well in the assay plate for a final reaction volume of 50 μl. Cells that were sensitized with IgE were used only with anti-IgE as a positive control for degranulation. The assay plate was incubated 30 min at 37° C. for degranulation to occur. During this incubation, p-nitro-N-acetyl-pi-D-gluosamine (pNAG, Sigma) buffer was prepared by sonicating 3.5 mg/ml of pNAG in citrate buffer (40 mM citric acid, 20 mM sodium phosphate dibasic, pH 4.5). β-hexosaminidase release was measured by mixing 20 μl of cell supernatant with 40 μl of pNAG solution in a flat-bottom 384-well plate. This plate was incubated for 1.5 hour at 3700, and the reaction was stopped by the addition of 40 μl of stop solution (400 mM glycine, pH 10.7). Absorbance was read using a plate reader at λ=405 nm with reference filter at λ=620 nm.
Mature mast cells were generated and tested with anti-cKIT antibody and F(ab′)2 and Fab fragments as described in Example 6.

[2] = test system: human HSCs in humanized NSG mice; assay: In vivo ablation of human HSCs from mouse host; conditions: 10 mg/kg twice per day for 2 days intraperitoneally, bone marrow analyzed day 21
[3] = test system: Human mobilized peripheral blood hematopoietic stem cells (HSCs); assay: In vitro human HSC cell killing / viability assay; type: cell-based; conditions: 7 days culture, FACS

| Molecule | mast cell degranulation (beta-hexosaminidase release) when cross-linked [1] | human HSCs (human CD45+, human CD34+, human CD38-) in bone marrow [2] | EC50 (ng/ml), cell viability, Human CD34 + cells [3] [ng/mL] | EC50 (ng/ml), cell viability, Human CD90 + cells [3] [ng/mL] | EC50 (ng/ml), cell viability, Human total nucleated cells [3] [ng/mL] |
| --- | --- | --- | --- | --- | --- |
| anti-cKIT Fab3 (HC-E152C): anti-cKIT Fab fragment with heavy chain E152C (Cys Fab HC SEQ ID NO: 130) (antibody, light chain not cited) heavy: QVQLVQSGAEVKKPGSSVKVSCKASGGTFSSYAISWVRQAPGQGLEWMGTIGPFEGQPRYAQKFQGRVTITADESTSTAYMELSSLRSEDTAVYYCARGGYISDFDVWGQGTLVTVSSASTKGPSVFPLAPSSKSTSGGTAALGCLVKDYFPCPVTVSWNSGALTSGVHTFPAVLQSSGLYSLSSVVTVPSSSLGTQTYICNVNHKPSNTKVDKKVEPKSCD | no mast cell degranulation was triggered | – | – | – | – |
| J26 (conjugate, LP2 linker-payload, DAR 4) heavy: QVQLVQSGAEVKKPGSSVKVSCKASGGTFSSHALSWVRQAPGQGLEWMGGIIPSFGTADYAQKFQGRVTITADESTSTAYMELSSLRSEDTAVYYCARGLYDFDYWGQGTLVTVSSASTKGPSVFPLAPSSKSTSGGTAALGCLVKDYFPEPVTVSWNSGALTSGVHTFPAVLQSSGLYSLSSVVTVPSSSLGTQTYICNVNHKPSNTKVDKRVEPKSCDKTHTCPPCPAP light: DIQMTQSPSSLSASVGDRVTITCRASQDISQDLAWYQQKPGKAPKLLIYDASSLQSGVPSRFSGSGSGTDFTLTISSLQPEDFAVYYCQQYYYLPSTFGQGTKVEIKRTVAAPSVFIFPPSDEQLKSGTASVVCLLNNFYPREAKVQWKVDNALQSGNSQESVTEQDSKDSTYSLSSTLTLSKADYEKHKVYACEVTHQGLSSPVTKSFNRGEC | – | showed reduced human HSCs; also recorded: able to ablate human HSCs in vivo | – | – | – |
| J15 (conjugate) heavy: QVQLVQSGAEVKKPGSSVKVSCKASGGTFSSYAISWVRQAPGQGLEWMGVIFPAEGAPGYAQKFQGRVTITADESTSTAYMELSSLRSEDTAVYYCARGGYISDFDVWGQGTLVTVSSASTKGPSVFPLAPSSKSTSGGTAALGCLVKDYFPEPVTVSWNSGALTSGVHTFPAVLQSSGLYSLSSVVTVPSSSLGTQTYICNVNHKPSNTKVDKRVEPKSCDKTHTCPPCPAP light: DIQMTQSPSSLSASVGDRVTITCRASQSISNYLAWYQQKPGKAPKLLIYDASSLQSGVPSRFSGSGSGTDFTLTISSLQPEDFATYYCQQYYYESITFGQGTKVEIKRTVAAPSVFIFPPSDEQLKSGTASVVCLLNNFYPREAKVQWKVDNALQSGNSQESVTEQDSKDSTYSLSSTLTLSKADYEKHKVYACEVTHQGLSSPVTKSFNRGEC | – | – | 151 | 229 | 115 |
| J11 (conjugate) heavy: QVQLVQSGAEVKKPGSSVKVSCKASGGTFSSHALSWVRQAPGQGLEWMGGIIPSFGTADYAQKFQGRVTITADESTSTAYMELSSLRSEDTAVYYCARGLYDFDYWGQGTLVTVSSASTKGPSVFPLAPSSKSTSGGTAALGCLVKDYFPEPVTVSWNSGALTSGVHTFPAVLQSSGLYSLSSVVTVPSSSLGTQTYICNVNHKPSNTKVDKRVEPKSCDKTHTCPPCPAPELLG light: DIQMTQSPSSLSASVGDRVTITCRASQDISQDLAWYQQKPGKAPKLLIYDASSLQSGVPSRFSGSGSGTDFTLTISSLQPEDFAVYYCQQYYYLPSTFGQGTKVEIKRTVAAPSVFIFPPSDEQLKSGTASVVCLLNNFYPREAKVQWKVDNALQSGNSQESVTEQDSKDSTYSLSSTLTLSKADYEKHKVYACEVTHQGLSSPVTKSFNRGEC | – | – | 27 | 41 | 16 |
| J29 (conjugate, LP2 linker-payload, DAR 4) heavy: QVQLVQSGAEVKKPGSSVKVSCKASGGTFSSYAISWVRQAPGQGLEWMGTIGPFEGQPRYAQKFQGRVTITADESTSTAYMELSSLRSEDTAVYYCARGGYISDFDVWGQGTLVTVSSASTKGPSVFPLAPSSKSTSGGTAALGCLVKDYFPEPVTVSWNSGALTSGVHTFPAVLQSSGLYSLSSVVTVPSSSLGTQTYICNVNHKPSNTKVDKRVEPKSCDKTHTCPPCPAP light: DIQMTQSPSSLSASVGDRVTITCRASQSISNYLAWYQQKPGKAPKLLIYDASSLQSGVPSRFSGSGSGTDFTLTISSLQPEDFATYYCQQYYYESITFGQGTKVEIKRTVAAPSVFIFPPSDEQLKSGTASVVCLLNNFYPREAKVQWKVDNALQSGNSQESVTEQDSKDSTYSLSSTLTLSKADYEKHKVYACEVTHQGLSSPVTKSFNRGEC | – | showed reduced human HSCs; also recorded: able to ablate human HSCs in vivo | – | – | – |
| J16 (conjugate) heavy: QVQLVQSGAEVKKPGSSVKVSCKASGGTFSSYAISWVRQAPGQGLEWMGVIFPAEGAPGYAQKFQGRVTITADESTSTAYMELSSLRSEDTAVYYCARGGYISDFDVWGQGTLVTVSSASTKGPSVFPLAPSSKSTSGGTAALGCLVKDYFPEPVTVSWNSGALTSGVHTFPAVLQSSGLYSLSSVVTVPSSSLGTQTYICNVNHKPSNTKVDKRVEPKSCDKTHTCPPCPAP light: DIQMTQSPSSLSASVGDRVTITCRASQSISNYLAWYQQKPGKAPKLLIYDASSLQSGVPSRFSGSGSGTDFTLTISSLQPEDFATYYCQQYYYESITFGQGTKVEIKRTVAAPSVFIFPPSDEQLKSGTASVVCLLNNFYPREAKVQWKVDNALQSGNSQESVTEQDSKDSTYSLSSTLTLSKADYEKHKVYACEVTHQGLSSPVTKSFNRGEC | – | – | 43 | 89 | 29 |
| J10 (conjugate) heavy: QVQLVQSGAEVKKPGSSVKVSCKASGGTFSSHALSWVRQAPGQGLEWMGGIIPSFGTADYAQKFQGRVTITADESTSTAYMELSSLRSEDTAVYYCARGLYDFDYWGQGTLVTVSSASTKGPSVFPLAPSSKSTSGGTAALGCLVKDYFPEPVTVSWNSGALTSGVHTFPAVLQSSGLYSLSSVVTVPSSSLGTQTYICNVNHKPSNTKVDKRVEPKSCDKTHTCPPCPAPELLG light: DIQMTQSPSSLSASVGDRVTITCRASQDISQDLAWYQQKPGKAPKLLIYDASSLQSGVPSRFSGSGSGTDFTLTISSLQPEDFAVYYCQQYYYLPSTFGQGTKVEIKRTVAAPSVFIFPPSDEQLKSGTASVVCLLNNFYPREAKVQWKVDNALQSGNSQESVTEQDSKDSTYSLSSTLTLSKADYEKHKVYACEVTHQGLSSPVTKSFNRGEC | – | – | 57 | 59 | 35 |
| anti-cKIT F(ab′2)2: F(ab′)2 fragment of anti-cKIT Ab2 (antibody) heavy: EVKLEQSGPGLVKPSQSLSLTCSVTGYSITSGYYWNWIRQFPGNKLEWMSYISYDGDNNYNPSLKNRISITRDTSKNQFFLKLSSVTTEDTATYYCAGGYYRYGLSYYYVMDYWGQGTSVTVSAASTKGPSVFPLAPSSKSTSGGTAALGCLVKDYFPEPVTVSWNSGALTSGVHTFPAVLQSSGLYSLSSVVTVPSSSLGTQTYICNVNHKPSNTKVDKRVEPKSC light: DIKMTQSPASLAVSLGQRATISCKASQSVDYDGNSYMNWYQQKPGQPPKLLIYAASNLESGIPARFSGSGSGTDFTLNIHPVEEEDAATYYCQQSNEDPPTFGGGTKLELKRTVAAPSVFIFPPSDEQLKSGTASVVCLLNNFYPREAKVQWKVDNALQSGNSQESVTEQDSKDSTYSLSSTLTLSKADYEKHKVYACEVTHQGLSSPVTKSFNRGEC | caused mast cell degranulation when cross-linked | – | – | – | – |
